About 2,200 (0.71%) of roughly 310,000 compounds showed an effect of 50% or more. The effect is printed as a negative number. The list shows a part of the results.

Chain of human ether-à-go-go-related gene (hERG) potassium channel (Q12809 whole entry, looked up): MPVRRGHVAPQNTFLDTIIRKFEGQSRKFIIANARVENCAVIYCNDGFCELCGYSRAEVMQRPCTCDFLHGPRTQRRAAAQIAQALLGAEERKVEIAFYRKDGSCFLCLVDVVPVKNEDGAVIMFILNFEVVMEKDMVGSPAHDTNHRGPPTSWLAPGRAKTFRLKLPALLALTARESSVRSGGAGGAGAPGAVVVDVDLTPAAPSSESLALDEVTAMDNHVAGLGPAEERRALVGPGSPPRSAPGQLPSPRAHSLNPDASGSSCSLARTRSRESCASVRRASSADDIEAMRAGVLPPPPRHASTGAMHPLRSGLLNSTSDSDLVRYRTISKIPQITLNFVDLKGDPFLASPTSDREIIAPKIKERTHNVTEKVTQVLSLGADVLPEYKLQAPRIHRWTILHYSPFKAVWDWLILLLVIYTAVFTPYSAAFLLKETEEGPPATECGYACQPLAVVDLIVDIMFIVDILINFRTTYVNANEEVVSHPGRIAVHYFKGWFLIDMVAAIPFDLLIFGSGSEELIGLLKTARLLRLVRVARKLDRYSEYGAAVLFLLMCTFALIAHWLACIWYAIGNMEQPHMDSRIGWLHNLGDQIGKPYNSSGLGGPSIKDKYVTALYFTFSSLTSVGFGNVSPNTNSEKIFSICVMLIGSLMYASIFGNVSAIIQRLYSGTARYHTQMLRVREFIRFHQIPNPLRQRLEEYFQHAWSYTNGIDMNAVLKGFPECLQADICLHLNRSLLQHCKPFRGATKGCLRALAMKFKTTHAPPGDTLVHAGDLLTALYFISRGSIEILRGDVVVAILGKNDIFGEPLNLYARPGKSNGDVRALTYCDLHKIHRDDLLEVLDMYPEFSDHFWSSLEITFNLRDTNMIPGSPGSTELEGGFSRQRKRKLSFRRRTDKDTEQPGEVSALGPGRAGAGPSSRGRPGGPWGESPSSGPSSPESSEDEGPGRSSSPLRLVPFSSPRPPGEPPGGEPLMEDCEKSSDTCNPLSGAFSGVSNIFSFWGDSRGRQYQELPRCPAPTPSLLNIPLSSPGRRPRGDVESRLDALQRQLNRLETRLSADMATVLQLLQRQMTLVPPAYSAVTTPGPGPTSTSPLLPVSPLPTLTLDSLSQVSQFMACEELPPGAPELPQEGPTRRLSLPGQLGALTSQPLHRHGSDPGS

This experiment has as its target human ether-à-go-go-related gene (hERG) potassium channel (human, UniProt Q12809). Briefly: primary screen, population patch clamp on CHO cells stably expressing hERG.
As for `CN(CC(=O)Nc1ccc(C#N)cc1)CC(=O)Nc1ccc(N2CCOCC2)cc1`, the “hERG current change (%, negative = inhibition) at 1uM” value is reported as 6.03%.

Take `Cc1cc(C(c2cc(C)c(N)c(C)c2)c2ccco2)cc(C)c1N`: the “hERG current change (%, negative = inhibition) at 1uM” value came to 6.25%.

`O=S(=O)(c1ccc2ccccc2c1)N1CCN(S(=O)(=O)N2CCCCC2)CC1`: the “hERG current change (%, negative = inhibition) at 1uM” value was -5.1%.

As to `Cc1cc(C)cc(NC(=O)CSc2nnc(CNC(=O)c3cccs3)o2)c1`, the “hERG current change (%, negative = inhibition) at 1uM” value stood at 6.1%.

As to `Cc1cc(/C=C(\C#N)C(=O)NC2CCCCCC2)c(C)[nH]1`, the “hERG current change (%, negative = inhibition) at 1uM” value is on record as 11.3%.

In the case of `O=C1c2ccccc2C(=O)N1CSc1ncccn1`, the “hERG current change (%, negative = inhibition) at 1uM” value was 1.65%.

Regarding `COc1cc(/C=C(\C#N)C(=O)NCc2cccs2)ccc1O`, the “hERG current change (%, negative = inhibition) at 1uM” value turned out to be 21.1%.

Consider `CNC(=O)C(=O)Nc1c(C)cc(C)cc1C`, for which the “hERG current change (%, negative = inhibition) at 1uM” value stood at 18.7%.

Turning to `CCC(=O)N(CCC1(C(C)C)CCOC(C)(C)C1)C(C)c1cccs1` (stereo not drawn), the “hERG current change (%, negative = inhibition) at 1uM” value amounted to 10.3%.

As for `C=CCN1C(=O)C(O)(CC(=O)c2ccc(-n3cccc3)cc2)c2ccccc21` (stereo not drawn), the “hERG current change (%, negative = inhibition) at 1uM” value is reported as -3.29%.

For the molecule `COC(=O)C1=C(c2ccc(F)cc2OCc2ccccc2)C[C@@H]2CC[C@H]1N2C(=O)NC(C)C`, the “hERG current change (%, negative = inhibition) at 1uM” value was found to be 8.04%.

Consider `Cc1oc(=O)c(NC(=O)c2ccccc2)cc1C(=O)c1ccccc1`, for which the “hERG current change (%, negative = inhibition) at 1uM” value is 10.9%.

Regarding `COc1cccc(CNC(=O)CSCc2cnn(-c3ccccc3)c2-n2cccc2)c1`, the “hERG current change (%, negative = inhibition) at 1uM” value is recorded as -4.57%.

Regarding `Oc1ccc(/C(Cc2ccccn2)=N\Nc2ccccc2)c(O)c1`, the “hERG current change (%, negative = inhibition) at 1uM” value came to 0.966%.

`COc1ccc(CN(C(=O)COc2ccccc2)c2ccccc2C(=O)O)cc1`: the “hERG current change (%, negative = inhibition) at 1uM” value is 22%.

For the molecule `COC(=O)c1ccc(OC)c(Cn2c(=O)n(C)c(=O)c3ccccc32)c1`, the “hERG current change (%, negative = inhibition) at 1uM” value turned out to be 10.9%.

`COc1cc(Br)cc(CN2CCN(C=O)CC2)c1O`: the “hERG current change (%, negative = inhibition) at 1uM” value is 7.81%.

`CN(C)CCn1c(=O)n(Cc2ccccc2)c(=O)c2c3c(sc21)CCCCC3`: the “hERG current change (%, negative = inhibition) at 1uM” value was determined as 6.62%.

As for `CC(=O)Nc1ccc(S(=O)(=O)N2CCC(C(=O)NCc3ccncc3)CC2)cc1`, the “hERG current change (%, negative = inhibition) at 1uM” value came to 15.1%.

For the molecule `CCc1noc(C)c1C(=O)Nc1cc(S(=O)(=O)N(CC)CC)ccc1N1CCOCC1`, the “hERG current change (%, negative = inhibition) at 1uM” value is 2.71%.

Regarding `O=C(Nc1ccccn1)C1CCN(S(=O)(=O)c2cccc3nonc23)CC1`, the “hERG current change (%, negative = inhibition) at 1uM” value is 2.37%.

For the molecule `Cc1ccc(CCSc2ccc(F)cc2)cn1.O=C(O)C(=O)O`, the “hERG current change (%, negative = inhibition) at 1uM” value is recorded as 9.97%.

Turning to `O=C1CC(=O)N2N=C(c3ccc([N+](=O)[O-])cc3)SC2=N1`, the “hERG current change (%, negative = inhibition) at 1uM” value was 8.94%.

For the molecule `CC(C(=O)N=Nc1c(O)[nH]c2ccccc12)n1cnc2ccccc2c1=O` (stereo not drawn), the “hERG current change (%, negative = inhibition) at 1uM” value was 8.48%.

On to `CCOC(=O)CCCNC(=O)COC(=O)c1cccc(C)c1O`, for which the “hERG current change (%, negative = inhibition) at 1uM” value was determined as 14%.

Regarding `Fc1ccc(-c2cc3nc(-c4ccccc4)cc(N4CCOCC4)n3n2)cc1`, the “hERG current change (%, negative = inhibition) at 1uM” value turned out to be 2.46%.

Regarding `COC(=O)CCc1nc2ccccc2nc1OC`, the “hERG current change (%, negative = inhibition) at 1uM” value was found to be 16.6%.

As for `CC(=O)NCC(=O)OCC(=O)c1ccc(C)cc1`, the “hERG current change (%, negative = inhibition) at 1uM” value was found to be 14.4%.

Turning to `CC1CCN(S(=O)(=O)c2ccc3c(c2)N(CC(=O)NCCCN2CCCC(C)C2)C(=O)CO3)CC1` (stereo not drawn), the “hERG current change (%, negative = inhibition) at 1uM” value worked out at 13.6%.

For `CC(C)N1CCC(=NNC(=O)c2ccc(Br)o2)CC1`, the “hERG current change (%, negative = inhibition) at 1uM” value is reported as 8.02%.

For the molecule `Cc1ccc2cc(CCNC(=O)c3cccc([N+](=O)[O-])c3)c(=O)[nH]c2c1`, the “hERG current change (%, negative = inhibition) at 1uM” value amounted to 4.13%.

Consider `CCOc1ccc(OCc2ccc(C(=O)NCC3CCCO3)o2)cc1` (stereo not drawn), for which the “hERG current change (%, negative = inhibition) at 1uM” value amounted to 7.5%.

For `O=C(C(=O)N1CCN(c2ccccc2Cl)CC1)c1c[nH]c2ccccc12`, the “hERG current change (%, negative = inhibition) at 1uM” value stood at 15.9%.

On to `COCCNC(=O)[C@@]1(Cc2ccccc2)C=C[C@@H](C)N1C(C)=O`, for which the “hERG current change (%, negative = inhibition) at 1uM” value is on record as 9.59%.

As for `O=C(COc1ccc(Br)cc1)N1CCOCC1`, the “hERG current change (%, negative = inhibition) at 1uM” value came to 7.32%.

With `COc1ccc(OC)c(/C(O)=C/C(=O)C(=O)Nc2cc(C)cc(C)c2)c1`, the “hERG current change (%, negative = inhibition) at 1uM” value is on record as 9.27%.

Turning to `Cc1ccc(CNC(=O)Cc2ccc(-c3ccccc3)cc2)cc1`, the “hERG current change (%, negative = inhibition) at 1uM” value is on record as -6.67%.

For the molecule `O=C(CCn1cnc(-c2ccccc2)c1-c1ccccc1)N/N=C/c1ccccc1O`, the “hERG current change (%, negative = inhibition) at 1uM” value turned out to be 9.24%.

Regarding `COc1ccc(C2C(C#N)=C(N)N(c3ccccc3C#N)C3=C2C(=O)CCC3)cc1CN1CCCC1` (stereo not drawn), the “hERG current change (%, negative = inhibition) at 1uM” value came to 10.2%.

Turning to `CCOc1ccc(-c2nnn(CC(=O)NCc3ccc(C)cc3)n2)cc1`, the “hERG current change (%, negative = inhibition) at 1uM” value was 15.8%.

As to `Cc1cnc(C)c(N2CCN(Cc3nc(-c4ccccc4)no3)CC2)n1`, the “hERG current change (%, negative = inhibition) at 1uM” value is given as 9.35%.

In the case of `Fc1ccccc1NC(=S)NCCc1ccc(Cl)cc1`, the “hERG current change (%, negative = inhibition) at 1uM” value is listed as 15.6%.

As for `Cc1nccc2[nH]c(=O)c(C(=O)NC3CCCCC3C)cc12` (stereo not drawn), the “hERG current change (%, negative = inhibition) at 1uM” value was 12.2%.

For the molecule `COc1ccc(CCC(=O)N2CCN(c3ccccc3)CC2)cc1OC`, the “hERG current change (%, negative = inhibition) at 1uM” value is listed as 13.5%.

Consider `CCc1noc(C)c1C(=O)NNC(=O)c1nn(C)c(=O)c2ccccc12`, for which the “hERG current change (%, negative = inhibition) at 1uM” value is -12.2%.

The values above are taken from publication PMC4336329 (PLoS ONE, 2015).
